Measurements as given in PubChem BioAssay AID894 (National Center for Advancing Translational Sciences (NCATS), 2007).
The whole screen tested about 150,000 compounds, of which about 6,500 (4.3%) were called active. Inconclusive results, whose numbers are uncertain, are shown with a selection of clear calls. Calls come from the whole dose curve; as a rule, active = well fitted inhibition curve with a large enough effect (not every such curve was filed as active); inconclusive = small, poorly fitted or top-dose-only effect, or another doubt; inactive = no such curve, though single readings can be large or run the other way. Potencies of inconclusive entries are doubtful fits and often do not repeat.

Molecular target: 15-hydroxyprostaglandin dehydrogenase [NAD(+)] (Homo sapiens) (UniProt P15428)
Experiment: qHTS Assay for Inhibitors of HPGD (15-Hydroxyprostaglandin Dehydrogenase)
Conditions: purified HPGD, NADH fluorescence kinetic, PGE2 substrate; activity change, negative = inhibition: stronger effect = lower value
Method in brief: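 NADH formation kinetics: reaction with 30 uM PGE2 and 1 mM NAD+ (final), 20 nM enzyme, Tris-HCl pH 8 with Tween 20, after 15 min compound preincubation at room temperature. Fluorescence change, last versus first of five reads.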
% is set by controls: 0 for no effect and ±100 for the full control effect; potency is the fitted concentration of half-maximal effect; tags give direction and shape of the fitted curve.

Chain of UniProt P15428 (P15428 whole entry, looked up): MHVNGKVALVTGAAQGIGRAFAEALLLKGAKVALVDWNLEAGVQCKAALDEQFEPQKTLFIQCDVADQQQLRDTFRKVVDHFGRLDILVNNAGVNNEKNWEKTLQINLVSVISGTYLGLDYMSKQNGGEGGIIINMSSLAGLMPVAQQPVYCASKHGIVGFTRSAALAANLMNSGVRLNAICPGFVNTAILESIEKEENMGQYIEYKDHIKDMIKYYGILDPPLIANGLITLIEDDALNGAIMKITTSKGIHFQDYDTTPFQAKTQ

Activity change, negative = inhibition, inactive:
Nc1nc(CN2CCN(c3ccccc3F)CC2)nc(Nc2ccccc2)n1 -6.18%
COC(=O)c1ccc(=O)n(Cc2ccco2)c1 -7.18%
CC1CCCCN1C(=O)CSc1nnc(Cc2ccccc2)n1C (centres undefined) -14.3%
O=C(CN1CCOCCOCCOCCOCC1)Nc1ccccc1 -7.3%
O=C(COC(=O)CCCNC(=O)c1ccc(Cl)cc1)Nc1cc(Cl)ccc1Cl -18.1%
COc1ccccc1NC1=CC(=O)CC(c2ccccc2)C1 (centres undefined) -5.64%
O=C1OC(Nc2nccs2)c2ccccc21 (centres undefined) -11.1%
COC(=O)C1=C(C)NC(=O)NC1c1cccc(OC)c1OCc1ccccc1 (centres undefined) -8.5%
CSc1ccccc1NC(=O)Cc1ccc(Br)cc1 -10.6%
Cc1nc2c3ccccc3nc(SCC(=O)c3ccc(Cl)cc3)n2n1 -7.85%
O=C1NC(c2ccccc2)=NC1(NS(=O)(=O)c1ccc(Cl)cc1)C(F)(F)F (centres undefined) 0.33%
Cc1nn(CCC(=O)NNC(=S)Nc2ccc(F)cc2)c(C)c1Br -11.8%
Cn1c(=O)c2c(nc(N3CCC(C(N)=O)CC3)n2CCSc2nc3ccccc3s2)n(C)c1=O -2.48%

Potency, inconclusive:
COCc1cc(C)nc(NC2CCCCC2)c1C#N 31.6 µM [inhibitor, partial curve]
CCOc1ccc2[nH]c(=O)c(CN(CC3COCCO3)C(=O)c3ccco3)cc2c1 (centres undefined) 3.55 µM [inhibitor, full curve]
Cc1[nH]c(=O)c(C#N)cc1-c1ccc2nccn2c1 22.4 µM [inhibitor, partial curve]
Cc1cc(C)c2c(N)c(C(=O)NCc3ccco3)sc2n1 22.4 µM [inhibitor, partial curve]
CCCn1c(=O)c(C(=O)Nc2ccccc2)c(O)c2ccccc21 31.6 µM [inhibitor, single point]
CC(C)(C)CC(=O)Nc1nnc(-c2cccs2)s1 25.1 µM [inhibitor, partial curve]
Cc1cc(C)cc(Nc2nc3c(S(=O)(=O)c4ccccc4)nnn3c3ccccc23)c1 12.6 µM [inhibitor, partial curve]
COC(CNC(=O)c1c[nH]c2ccc(S(=O)(=O)N3CCC4(CC3)OCCO4)cc2c1=O)OC 28.2 µM [inhibitor, partial curve]
O=C(Nc1sc2c(c1C(=O)NCc1cccnc1)CCCC2)c1ccco1 31.6 µM [inhibitor, partial curve]
CC1CN(C(NC(=O)C(C)(C)C)C(Cl)(Cl)Cl)CC(C)O1 (centres undefined) 15.8 µM [inhibitor, partial curve]
COc1cccc(Oc2coc3c(CN4CCOCC4)c(O)ccc3c2=O)c1 31.6 µM [inhibitor, partial curve]
COCC1C2CC[C@H]3C(OCc4ccc(OC)cc4)OC[C@]4(C)[C@H]3C2=C(CN4C(=O)OC(C)(C)C)[C@H](C)C1COC (some centres undefined) 35.5 µM [inhibitor, partial curve]
CCn1c(NC(=O)c2ccc(COc3ccc(C)cc3[N+](=O)[O-])o2)nc2ccccc21 35.5 µM [inhibitor, single point]
Cc1ccc2c(c1)c1cccc3c1n2CCN3CCC(N)=O 31.6 µM [inhibitor, partial curve]
COC(=O)Cn1c(=NC(=O)c2nc3ccccc3s2)sc2cc(S(C)(=O)=O)ccc21 31.6 µM [inhibitor, partial curve]
COc1ccc(/C=C(\C#N)C(=O)OCC(=O)Nc2c(C)cccc2C(C)C)cc1 25.1 µM [inhibitor, partial curve]
CCn1c(=O)cc(SCC(=O)NCC2CCCO2)c2ccccc21 (centres undefined) 14.1 µM [inhibitor, partial curve]
O=C(NNc1nc2ccccc2s1)Nc1ccccc1 0.794 µM [inhibitor, single point]
Clc1ccc(OCc2nnc(-c3ccccc3Br)o2)c(Cl)c1 28.2 µM [inhibitor, partial curve]
Cc1ccc(C2CC(c3ccccc3)=NN2c2ccccc2)o1 (centres undefined) 28.2 µM [inhibitor, partial curve]
Cc1onc(-c2ccccc2)c1C(=O)n1nnc2ccccc21 39.8 µM [inhibitor, single point]
COc1ccc(C)cc1NC(=O)c1ccc(CN2CCN(c3ccccc3)CC2)cc1 39.8 µM [inhibitor, single point]
CCc1nnc(NS(=O)(=O)c2ccc(N=Cc3c(C)[nH]n(-c4ccc(Cl)cc4)c3=O)cc2)s1 31.6 µM [inhibitor, partial curve]
O=C(Nc1cccc(-c2nc3cc(Cl)ccc3o2)c1)C1CCCO1 (centres undefined) 15.8 µM [inhibitor, partial curve]
COCCn1c(=NC(=O)c2cc(Cl)sc2Cl)sc2cc(S(N)(=O)=O)ccc21 28.2 µM [inhibitor, partial curve]
COc1ccc(N2CCN(C(=O)CSc3nnc(-c4ccc5[nH]c(C)c(C)c5c4)o3)CC2)cc1 28.2 µM [inhibitor, partial curve]
Cc1nc(NC2CCCCC2)c2nc(-c3ccccc3)n(CCN3CCCC3)c2n1 31.6 µM [inhibitor, partial curve]

Potency, active:
CN(C(=O)c1ccc2c(c1)C(=O)N(CCC1=CCCCC1)C2=O)C1CCCCC1 14.1 µM
COc1ccc2c(=O)c3c(=O)n(Cc4ccco4)c(-c4ccco4)nc3oc2c1 22.4 µM
O=C(Nc1ccc(Cl)cc1)N1CCCN(Cc2ccccc2F)C1 12.6 µM
COCCNC(=O)c1cc(-c2cccc(OC)c2)on1 25.1 µM
